# According to PubChem BioAssay AID1508642 (National Center for Advancing Translational Sciences (NCATS), 2021):
# Screen size: about 43,000 compounds; about 200 (0.47%) were called active. Inconclusive results (about 12%) are left out. Calls come from the whole dose curve; as a rule, active = well fitted cell-killing curve with a large enough effect; inconclusive = small, poorly fitted or top-dose-only effect, or effect the other way; inactive = flat fitted curve, though single readings scatter. This is one part of the list.
# Assay: Cell viability qHTS assay in S16 Pmp22-F2sN cells; note: nearly all actives have a fitted effect of over 65% in size
# Settings: S16 Pmp22-F2sN Schwann cells viability, CellTiter-Glo, 24 h; series mostly up to 57.5 µM; activity change, negative = cytotoxicity: at the top concentration
# How it was run: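 Viability was measured by CellTiter-Glo luminescence (15 min, room temperature). This followed 24 h at 37 °C of compound exposure (23 nL pin transfer) in S16 Pmp22-F2sN Schwann cells, 500-1,000 per well.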
# % is set by controls: 0 for no effect and ±100 for the full control effect.
row,SMILES,"activity change, negative = cytotoxicity"
1,COc1ccc(CCCc2nnc(SCC(=O)Nc3ccccc3F)o2)cc1C,inactive: 6.34%
2,COc1cccc(N(Cc2nnc3n2CCCCC3)C(=O)Nc2cccc(Cl)c2)c1,inactive: 1.62%
3,CCOCCCNC(=O)CN1C(=O)c2c(c3ccccc3n2C)C1c1ccc(OC)cc1 (stereo not given),inactive: -0.689%
4,COc1ccc(N(C(=O)COc2ccc(Br)cc2)S(=O)(=O)c2ccc(C)cc2)cc1,inactive: 0.49%
5,CCOC(=O)c1c(S(=O)(=O)N2CCCC(C(=O)Nc3ncccc3C)C2)c(C)n(C)c1C (stereo not given),inactive: -0.94%
6,O=C(OCc1ccccc1Cl)c1ccc(-c2nnn(Cc3ccccc3Cl)n2)cc1,inactive: -5.07%
7,CCOc1ccc(CNC(=O)Cn2c(=O)c3cccn3c3ccc(F)cc32)cc1OC,inactive: 3.88%
8,COc1cc(/C=C/c2nc(C#N)c(NC(C)c3ccccc3)o2)cc(OC)c1OC (stereo not given),inactive: -29.9%
9,CCOC(=O)CCN(c1ccccc1)S(=O)(=O)c1ccc2[nH]c(=O)ccc2c1,inactive: 5.69%
10,CCc1ccc(Oc2nc3c(C)cccn3c(=O)c2/C=C(\C#N)c2nc3ccccc3s2)cc1,inactive: -32.9%
11,O=C(c1ccc(Cl)cc1)n1nc(-c2ccco2)nc1NCc1cccs1,inactive: -0.573%
12,Cc1ccc(CNC(=O)Cn2c(=O)n(-c3ccccc3)c(=O)c3c2c2cc(C)ccc2n3C)cc1,inactive: 2.61%
13,CCCCN(C)CCNC(=O)Cn1ncc2c([nH]c3ccccc32)c1=O,inactive: -3.49%
14,Cc1ccc(NC(=O)CCSc2nc(-c3ccc4c(c3)OCO4)cc(C(F)(F)F)n2)cc1,inactive: -3.07%
15,CCOC(=O)c1c(NC(=O)c2cc(=O)c3c(C)cc(C)cc3o2)sc2c1CCC2,inactive: 13.5%
16,COc1ccc(-c2cc(C(=O)OCC(=O)c3cccc(OC)c3)c3cccc(Cl)c3n2)cc1,inactive: 0.797%
17,COc1ccc(NC(=O)C2CCN(c3nc(-c4ccc(OC)c(OC)c4)no3)CC2)cc1Cl,inactive: 0.548%
18,COc1ccccc1N(C)C(=O)Cn1c(=O)oc2cc(S(=O)(=O)N3CCCC3)ccc21,inactive: -6.21%
19,COc1ccc(CCC(=O)NCc2nc3cccnc3n2Cc2ccc(OC)cc2)cc1,inactive: 10.7%
20,CCOC(=O)c1c(NC(=O)CS(=O)(=O)c2ccc(Cl)cc2)sc2c1CCCC2,inactive: 1.78%

row,SMILES,"activity change, negative = cytotoxicity"
1,CNC(=O)C1CCN(C(=O)N2CC(C)Oc3ccc(C)cc32)CC1 (stereo not given),inactive: 8.51%
2,CCOC(=O)c1c(C)oc2ncnc(N3CCN(c4cccc(Cl)c4)CC3)c12,inactive: -4.81%
3,CCOC(=O)c1c(C)[nH]c(C)c1S(=O)(=O)N1CCN(c2ccccc2OC)CC1,inactive: -12%
4,COc1ccc(Cl)cc1NC(=O)CSc1nc2ccccc2nc1N1CCCCC1,inactive: 8.38%
5,CC1=C(C(=O)Nc2ccccc2)C(c2ccccc2Cl)n2ncc(C(=O)Nc3cccc(C)c3)c2N1 (stereo not given),inactive: -15%
6,Cn1cc(S(=O)(=O)N2CCCCCC2)cc1C(=O)N1CCN(c2ccc(Cl)cc2)CC1,inactive: -1.66%
7,Cn1c(=O)c2c(ncn2CC(=O)Nc2cc(Cl)cc(Cl)c2)n(C)c1=O,inactive: 4.31%
8,Cc1nn(C)c2c1c(C(F)(F)F)cc(=O)n2C(C)C(=O)N1CCN(c2ccccc2)CC1 (stereo not given),inactive: 0.18%
9,CC(C)(C)OC(=O)N1CCC(c2c(C(=O)N3CCOCC3)cnn2-c2ccccc2Cl)CC1,inactive: 5.61%
10,COc1ccc(C2CC(=O)c3cnc4c(-c5ccccc5)c(C)nn4c3C2)c(OC)c1 (stereo not given),inactive: 10.9%
11,CCCCNC(=O)CCCn1c(=O)c2ccccc2n(Cc2ccc(Cl)cc2)c1=O,inactive: 25.8%
12,COc1ccc2c(c1)c1c(c(=O)n(-c3ccc(OC)c(OC)c3)c(=O)n1Cc1ccc(C)cc1)n2C,inactive: 12.2%
13,Fc1ccc(-c2noc3ncnc(N4CCCCC4)c23)cc1,inactive: -4.15%
14,O=C(Cc1ccccc1)Nc1cc(-c2nc3cc(Cl)ccc3o2)ccc1Cl,inactive: -11.2%
15,N#Cc1ccccc1S(=O)(=O)N1CCC(Oc2ccc(-n3cnnn3)cc2)CC1,inactive: -22%
16,COc1ccc(Cc2nc3ccc(C(=O)NCc4cc(Br)ccc4OC)cc3o2)cc1,inactive: 2.33%
17,CCc1c(C)nc2nncn2c1Nc1cccc(C)c1,inactive: -1.43%
18,COc1ccc(-c2nc(SCC(=O)Nc3cccc(C(C)=O)c3)n[nH]2)cc1,inactive: -3.59%
19,COc1ccc(C(=O)Nc2ccccc2)cc1S(=O)(=O)Nc1ccc(Br)cc1,inactive: 7.5%
20,O=C(OCc1cc(=O)n2nc(C3CC3)sc2n1)c1ccc(NC(=O)c2ccccc2Cl)cc1,inactive: 6.06%

row,SMILES,"activity change, negative = cytotoxicity"
1,Cc1cc2ccccc2n1CCNC(=O)c1ccccc1F,inactive: 35.2%
2,O=c1c2sc3ccccc3c2n(Cc2ccc(F)cc2)c(=O)n1Cc1ccco1,inactive: 14.1%
3,CC(C)c1ccc(S(=O)(=O)c2nnn3c2nc(NCc2cccs2)c2sccc23)cc1,inactive: 10.7%
4,O=C(NCC(c1ccc2c(c1)OCO2)N1CCN(c2ccccc2)CC1)C(=O)Nc1ccccc1 (stereo not given),inactive: 6.92%
5,O=C(Nc1ccc2nc(SCC(=O)N3CCCc4ccccc43)sc2c1)c1ccccc1F,inactive: -4.58%
6,Fc1ccc(Nc2nc(-c3cccc(Cl)c3)c3c(n2)-c2ccccc2OC3)cc1,inactive: -1.54%
7,O=C(Nc1cccc(C(=O)N2CCN(c3ccccc3)CC2)c1)c1nsc2ccccc12,inactive: -10.1%
8,CCc1ccc(C2=C(C)C(N3CCC(C(=O)Nc4ccc(F)cc4)CC3)=NS2(=O)=O)cc1,inactive: 6.94%
9,CCc1ccc2oc(C(=O)Nc3cc(Cl)ccc3OC)cc(=O)c2c1,inactive: 9.69%
10,Cc1c(C(=O)Nc2ccccc2)sc2nc(-c3cc4ccccc4oc3=O)[nH]c(=O)c12,inactive: 4.08%
11,COc1cccc(C2CC(=O)Nc3c2c(=O)[nH]c2ncnn32)c1OC (stereo not given),inactive: -1.65%
12,Cc1cccc2cc(CN(C(=O)c3cccc(Cl)c3)c3ccccc3)c(=O)[nH]c12,inactive: -2.62%
13,CNC(=O)C1CCC(Cn2c(=O)c3sccc3n(CC(=O)N3CCCC3)c2=O)CC1 (stereo not given),inactive: 0.624%
14,CCOc1ccc(C2C(C(N)=O)=C(C)Nc3nc(-c4ccc(OC)cc4)nn32)cc1 (stereo not given),inactive: 5.8%
15,COc1ccccc1Nc1nn2c(=O)c3ccc(C(=O)NC4CCC(C)CC4)cc3nc2s1 (stereo not given),inactive: 14.3%
16,COc1ccccc1C(=O)Nc1cccc(OCc2cc(=O)n3c4c(sc3n2)CCCC4)c1,inactive: -0.544%
17,CCN(CC)S(=O)(=O)c1ccc2nc(NC(=O)c3ccccc3OC)sc2c1,inactive: -16.8%
18,Cc1nnc(N2CCC(C(=O)NCc3ccc(F)cc3)CC2)c2nn(-c3ccc(Cl)cc3)c(C)c12,inactive: -22.5%
19,O=c1c2sc3ccccc3c2n(Cc2ccccc2F)c(=O)n1-c1ccccc1Cl,inactive: 14.4%
20,COc1cccc(CNC(=O)CSc2nc3ccccc3nc2Cc2ccccc2)c1,inactive: 11.7%
